Article PMC5700166
The entries are a selection whose mix differs from that of the whole data set. The list includes weakly bound sequences.

Assays:
Experiment in all cases: protein-binding microarray (PBM)
Details in all cases: PBM: ~300 nM protein, 6 mM HEPES pH 7.8, 80 mM KCl, 0.5 mM EDTA, 0.5 mM EGTA, 6% glycerol, 35 ng/ul poly-dIdC, 1% milk, 1 h, room temperature; Ap Aiptasia and Nv Nematostella (sea anemones) / Co Capsaspora / Aq Amphimedon (sponge) / Dm Drosophila / Hu human; RHD is the Rel homology domain; high values mean tight binding; most listed sequences are background and not binding sites; double strand, one strand shown
[1] = biological target: T1, GST-Ap-NF-kB RHD (UniProt A0A913YAJ5)
T1 sequence: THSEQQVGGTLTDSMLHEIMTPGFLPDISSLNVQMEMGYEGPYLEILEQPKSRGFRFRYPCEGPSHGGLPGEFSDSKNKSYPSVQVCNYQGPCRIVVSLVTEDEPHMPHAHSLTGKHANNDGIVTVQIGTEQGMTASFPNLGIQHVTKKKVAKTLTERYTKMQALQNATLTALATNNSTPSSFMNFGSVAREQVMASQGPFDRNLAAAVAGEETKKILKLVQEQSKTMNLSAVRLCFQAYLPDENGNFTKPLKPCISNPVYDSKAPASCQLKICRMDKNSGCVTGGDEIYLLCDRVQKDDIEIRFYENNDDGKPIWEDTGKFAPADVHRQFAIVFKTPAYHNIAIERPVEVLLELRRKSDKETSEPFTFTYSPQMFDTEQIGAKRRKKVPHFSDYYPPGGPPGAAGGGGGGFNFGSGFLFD

[2] = biological target: T2, GST-Nv-NF-kB (Cys allele) (UniProt E5G601)
T2 sequence: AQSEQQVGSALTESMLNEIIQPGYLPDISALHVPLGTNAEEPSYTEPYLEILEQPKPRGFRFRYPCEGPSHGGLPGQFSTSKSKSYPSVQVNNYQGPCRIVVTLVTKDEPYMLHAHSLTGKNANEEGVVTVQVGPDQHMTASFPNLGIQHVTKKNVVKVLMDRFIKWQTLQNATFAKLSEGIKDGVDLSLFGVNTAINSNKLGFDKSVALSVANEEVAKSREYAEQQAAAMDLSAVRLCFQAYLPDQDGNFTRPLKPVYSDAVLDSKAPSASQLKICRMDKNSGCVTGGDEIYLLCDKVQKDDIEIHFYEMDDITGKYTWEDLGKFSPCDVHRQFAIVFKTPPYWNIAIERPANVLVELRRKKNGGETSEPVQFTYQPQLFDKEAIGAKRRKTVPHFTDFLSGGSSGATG

[3] = biological target: T3, GST-Co-NF-kB (UniProt F1ARL5)
T3 sequence: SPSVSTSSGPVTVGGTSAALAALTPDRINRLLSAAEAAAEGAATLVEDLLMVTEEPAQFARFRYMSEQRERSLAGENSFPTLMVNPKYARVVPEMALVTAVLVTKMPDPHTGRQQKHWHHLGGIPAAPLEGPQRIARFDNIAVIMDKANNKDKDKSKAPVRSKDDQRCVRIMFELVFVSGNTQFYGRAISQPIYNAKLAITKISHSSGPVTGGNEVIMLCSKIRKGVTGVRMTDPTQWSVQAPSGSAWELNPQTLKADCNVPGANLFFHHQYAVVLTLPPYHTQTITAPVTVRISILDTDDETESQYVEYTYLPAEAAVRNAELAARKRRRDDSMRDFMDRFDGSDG

[4] = biological target: T4, GST-Dm-Relish (UniProt Q94527)
T4 sequence: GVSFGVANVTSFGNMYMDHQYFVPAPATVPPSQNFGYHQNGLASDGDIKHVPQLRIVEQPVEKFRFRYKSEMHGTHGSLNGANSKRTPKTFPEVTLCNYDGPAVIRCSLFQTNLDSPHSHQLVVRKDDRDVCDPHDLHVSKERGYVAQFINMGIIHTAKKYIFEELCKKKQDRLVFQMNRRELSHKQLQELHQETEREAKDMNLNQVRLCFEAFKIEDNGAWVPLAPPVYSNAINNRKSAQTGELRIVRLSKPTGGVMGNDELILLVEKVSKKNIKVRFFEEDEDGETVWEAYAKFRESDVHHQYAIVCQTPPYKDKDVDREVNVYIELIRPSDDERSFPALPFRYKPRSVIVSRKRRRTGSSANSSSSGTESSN

Sequence | binding signal [1] | binding signal [2] | binding signal [3] | binding signal [4]
CCGATTAACATCAGAAACTTTCCTGATGTTAATCGGGTCTTGATTCGCTTGACGCTGCTG | -0.499 z-score | 0.317 z-score | -0.146 z-score | 0.896 z-score
CCGATTAACATCAGGGGAGAAACTGATGTTAATCGGGTCTTGATTCGCTTGACGCTGCTG | 4.39 z-score | 4.53 z-score | – | 5.35 z-score
CCGATTAACATCACACTCCCCCCTGATGTTAATCGGGTCTTGATTCGCTTGACGCTGCTG | 5.44 z-score | 4.08 z-score | – | 3.37 z-score
CCGATTAACATCAAGGGGATTCCTGATGTTAATCGGGTCTTGATTCGCTTGACGCTGCTG | 10.4 z-score | 10.4 z-score | – | 9.9 z-score
CCGATTAACATCAGGATTATCCCTGATGTTAATCGGGTCTTGATTCGCTTGACGCTGCTG | 2.26 z-score | 2.9 z-score | – | 0.85 z-score
CCGATTAACATCAGGGGGAACCCTGATGTTAATCGGGTCTTGATTCGCTTGACGCTGCTG | 8.64 z-score | 7.75 z-score | – | 9.93 z-score
CCGATTAACATCAATTCCCATGATGATGTTAATCGGGTCTTGATTCGCTTGACGCTGCTG | 0.994 z-score | 2.46 z-score | – | 0.711 z-score
CCGATTAACATCAGAAGTTCCCATGATGTTAATCGGGTCTTGATTCGCTTGACGCTGCTG | 2.2 z-score | 2.3 z-score | – | 3.27 z-score
CCGATTAACATCAGGAAAAACCATGATGTTAATCGGGTCTTGATTCGCTTGACGCTGCTG | 0.236 z-score | 0.0947 z-score | 0.125 z-score | 2.39 z-score
CCGATTAACATCAGGGAAAGCTATGATGTTAATCGGGTCTTGATTCGCTTGACGCTGCTG | 2.11 z-score | 3.99 z-score | – | 0.107 z-score
CCGATTAACATCAAGGGGGTTTCTGATGTTAATCGGGTCTTGATTCGCTTGACGCTGCTG | 9.41 z-score | 8.37 z-score | 2.34 z-score | 9.83 z-score
CCGATTAACATCAGGGGAATTACTGATGTTAATCGGGTCTTGATTCGCTTGACGCTGCTG | 8.73 z-score | 10.6 z-score | – | 10.2 z-score
CCGATTAACATCAGGTGATCACCTGATGTTAATCGGGTCTTGATTCGCTTGACGCTGCTG | 0.239 z-score | 0.241 z-score | -0.551 z-score | 2.86 z-score
CCGATTAACATCAGGGGAATTCATGATGTTAATCGGGTCTTGATTCGCTTGACGCTGCTG | 9.45 z-score | 10.8 z-score | – | 7.6 z-score
